Data published in PMC7819943, “Rice protein-binding microarrays: a tool to detect cis-acting elements near promoter regions in rice”.
This is one part of the list.

What follows are sequences tested against T1, OsWOX13 (Oryza sativa, UniProt Q5QMM3 1-267) (assay: protein-binding microarray (RPBM); PBS, 2% BSA, 51.3 ng/ul salmon testes DNA, 50 uM zinc acetate, 200 nM TF, 25 C, 1 h; high values mean tight binding). Details: protein: recombinant; tags: N-terminal polyhistidine and DsRed monomer fusion (pET32a); label: CyDye5-dUTP incorporated in the synthesized complementary strand; 3' TTTTT single-stranded linker to array surface; dsDNA, one strand shown.
T1 sequence: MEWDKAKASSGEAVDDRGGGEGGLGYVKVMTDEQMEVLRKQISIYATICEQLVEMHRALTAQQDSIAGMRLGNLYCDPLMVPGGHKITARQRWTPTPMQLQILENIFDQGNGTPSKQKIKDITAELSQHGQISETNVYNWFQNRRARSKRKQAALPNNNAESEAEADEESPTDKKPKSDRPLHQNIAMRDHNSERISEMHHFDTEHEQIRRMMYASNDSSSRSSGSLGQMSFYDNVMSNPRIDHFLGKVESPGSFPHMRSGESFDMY
Summary of the method: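 The binding signal for each feature is its fluorescence intensity in arbitrary units. An Axon 4000B scanner was used to read a custom Agilent array that had been made double-stranded with Cy5-dUTP primer extension, blocked with 2% BSA, incubated at 25 °C for 1 h with 200 nM protein in PBS, 2% BSA, salmon testes DNA and 50 µM zinc acetate, and washed. The protein was an N-terminal polyhistidine–DsRed transcription factor fusion from E. coli BL21-CodonPlus, purified on Ni–NTA.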

Sequence	binding signal
AAAATTGTTTCAATCCAAACAAGCTCATCTTGTTCCGTGACGGAGTCACCTAGTGCAG	7880 fluorescence intensity (a.u.)
TGTTTAATATATTTTGTCTAATTGGACCGCTATATCAGTACGGAGTCACCTAGTGCAG	10800 fluorescence intensity (a.u.)
TTTTGATTTCGAAATTAATTAATTAACAAAAGGATTGACCCGGAGTCACCTAGTGCAG	14000 fluorescence intensity (a.u.)
AACACTTAATTTATCTTTTCATTTAAGTCTTGAATGTATACGGAGTCACCTAGTGCAG	16400 fluorescence intensity (a.u.)
CATAATTATTGAAGGCACAAAACTGCGCACGTTGCGTACCCGGAGTCACCTAGTGCAG	27300 fluorescence intensity (a.u.)
TGTTTGATTTGCTCTTGATTTGGAAGAAGAGATGAGAGGACGGAGTCACCTAGTGCAG	40100 fluorescence intensity (a.u.)
GATAAATTATCACGAAACTGTAACTTCTACGCATATCACGCGGAGTCACCTAGTGCAG	23700 fluorescence intensity (a.u.)
GTTTAATTCAATACTATAATTCCATCTAATTTGGGAAGCGCGGAGTCACCTAGTGCAG	7000 fluorescence intensity (a.u.)
GATTCGTTGAATTGATTGCTCTTAGTGCGATTGTGCGAATCGGAGTCACCTAGTGCAG	25900 fluorescence intensity (a.u.)
TGTAAGGATAATTGTTAGATTGTTAATAGTGTAAATGTCGCGGAGTCACCTAGTGCAG	11200 fluorescence intensity (a.u.)
TCAAAATAATAAATTTTGATGATAAAATAAGTCACAACAACGGAGTCACCTAGTGCAG	5540 fluorescence intensity (a.u.)
AAACAGATGGTACTAAATTAAATTATACTGGCGCAATAGACGGAGTCACCTAGTGCAG	5320 fluorescence intensity (a.u.)
CACTTAACTTAATTAGTTAATTATTGCTCTATTTTCTCTGCGGAGTCACCTAGTGCAG	60500 fluorescence intensity (a.u.)
TGCTTAACAGTCTTATATGATGTATCACGAAAGTTATTTCCGGAGTCACCTAGTGCAG	3250 fluorescence intensity (a.u.)
ATATAAATCAAATTTACAACTTTGCTGTAGCTATAATTTGCGGAGTCACCTAGTGCAG	7160 fluorescence intensity (a.u.)
TTTCAACATTAATTAGGAGTATTTCGAAAACTGAAATCATCGGAGTCACCTAGTGCAG	4970 fluorescence intensity (a.u.)
AATGGATGAGATTGGTAGGTAGCTATGGCAGCTGCTTCTTCGGAGTCACCTAGTGCAG	3740 fluorescence intensity (a.u.)
TTGTAATTAATTAACTGATTAATTAAACTGCATGAATTTTCGGAGTCACCTAGTGCAG	60100 fluorescence intensity (a.u.)
AGCTACCAAATTAATCAAGGGAACAAGTCATTAACTGTTACGGAGTCACCTAGTGCAG	5010 fluorescence intensity (a.u.)
AATATTTGATGATAAATCAAGTCACAATAGAATAAATAATCGGAGTCACCTAGTGCAG	4090 fluorescence intensity (a.u.)
TTAAAATTTAATTAATTTTATGCTTTAATGGTTATTTCTTCGGAGTCACCTAGTGCAG	36900 fluorescence intensity (a.u.)

Sequence	binding signal
TCTAATGTATTGATGATGGACCGATCGCACTCACTCCAGGCGGAGTCACCTAGTGCAG	23400 fluorescence intensity (a.u.)
TATTAATGGATACTGAAATATATTTGGAAGATGCTATATTCGGAGTCACCTAGTGCAG	3460 fluorescence intensity (a.u.)
AGGGATAGATTGGCTTAGGGGCGGGTGGGTCTAGAGATTTCGGAGTCACCTAGTGCAG	5870 fluorescence intensity (a.u.)
ACTAAATTGCACCCACCTCGCAAGCTCGTGTACTCGCAGTCGGAGTCACCTAGTGCAG	17600 fluorescence intensity (a.u.)
ACCTAATTACGAATCACAAAGAGAGATGCCTCACATATACCGGAGTCACCTAGTGCAG	16000 fluorescence intensity (a.u.)
CCCAAATTAACGCAGCCTTTGTCTATTTTGACCAAACCGTCGGAGTCACCTAGTGCAG	16400 fluorescence intensity (a.u.)
GAAATTTGCCAATTTGCCAATTGCATCAGGATCACTCTCGCGGAGTCACCTAGTGCAG	23100 fluorescence intensity (a.u.)
CCCTAAATAGGTTGATGGATTAGCTCCATTTTCCACCTAACGGAGTCACCTAGTGCAG	28200 fluorescence intensity (a.u.)
GCTAATCATAGACTAATTATACTCAAAAGATTCGTCATTCCGGAGTCACCTAGTGCAG	32500 fluorescence intensity (a.u.)
TTTTAATTATAATGTCACGTAAGCGGCACGTGGAATGAAACGGAGTCACCTAGTGCAG	18500 fluorescence intensity (a.u.)
CTATGCTTATTAATTGGGAGGGCCACTGGGGAAAATGGCTCGGAGTCACCTAGTGCAG	10700 fluorescence intensity (a.u.)
ACACTGACTGATTTACCCTTGATCATACTACTAGTACATTCGGAGTCACCTAGTGCAG	39100 fluorescence intensity (a.u.)
GATGTTTGAACACTAATTTAGAGTATTAAACATAGACTAGCGGAGTCACCTAGTGCAG	4030 fluorescence intensity (a.u.)
TGAAACTTGTAATTATCAATGGGGACCACCTATACATTTGCGGAGTCACCTAGTGCAG	12300 fluorescence intensity (a.u.)
ATATAATTTAACGAGGTTATGCGCCGTGGTACAAGATCCTCGGAGTCACCTAGTGCAG	19600 fluorescence intensity (a.u.)
TAGCTAATTTGGGTGTTGGTGCCTGGCTAGAAGGAGCTACCGGAGTCACCTAGTGCAG	4480 fluorescence intensity (a.u.)
GTCATAAATTGATCCATACATATCATAGTAAAGCGTGGGTCGGAGTCACCTAGTGCAG	33400 fluorescence intensity (a.u.)
GCTGGAGATTGGACCACCATTAACATCTCTTCGCTGCCATCGGAGTCACCTAGTGCAG	7680 fluorescence intensity (a.u.)
ACCTCACTGTCAATCGATATGGATTTGTATGATTTTCTATCGGAGTCACCTAGTGCAG	7670 fluorescence intensity (a.u.)
ACTTAACTATTATTATCAATCCTCCCTGCTAAAATGTATACGGAGTCACCTAGTGCAG	12200 fluorescence intensity (a.u.)
ATTGCGTGCTTGATTAATTAGTTTCTACCAACAATTTCTCCGGAGTCACCTAGTGCAG	8110 fluorescence intensity (a.u.)
